Data taken from the antibiotic and cytotoxicity screens of Wong et al. (2023).
Some of the results follow.

Tested on: S. aureus RN4220
Assay: growth inhibition call (relative growth <= 0.2)
Conditions: 50 µM

Growth inhibition call, inactive:
Cc1noc(C)c1NC(=O)Nc1ccc2c(c1)CC(=O)N([C@@H](C)CO)C[C@@H](C)[C@@H](CN(C)Cc1ccc(Cl)c(Cl)c1)O2, Cc1cccnc1[C@@H](NC(=O)C1CCN(Cc2ccc(Cl)c(Cl)c2)CC1)c1ccc(Cl)cc1, O[C@@H](CCl)CN1CC[N+]2(CC1)CC[N+]1(CCN(C[C@@H](O)CCl)CC1)CC2, Cc1ccc(S(=O)(=O)Nc2ccc3c(c2)CC(=O)N([C@@H](C)CO)C[C@@H](C)[C@@H](CN(C)C(=O)NC(C)C)O3)cc1, NS(=O)(=O)c1cc2c(cc1Cl)NCNS2(=O)=O, Cn1c(CN)nc2ccccc2c1=O, COc1ccc(S(=O)(=O)Nc2ccc3c(c2)C(=O)N([C@@H](C)CO)C[C@H](C)[C@H](CN(C)CC2CC2)O3)cc1, C[C@@H]1CN([C@@H](C)CO)C(=O)c2cc(NC(=O)Nc3ccc(F)cc3)ccc2O[C@@H](C)CCCCO[C@H]1CN(C)Cc1ccncc1, COc1ccc(S(=O)(=O)Nc2ccc3c(c2)CC(=O)N([C@H](C)CO)C[C@H](C)[C@@H](CN(C)S(=O)(=O)c2ccccc2)O3)cc1, C[C@@H]1CN([C@H](C)CO)C(=O)c2cc(NC(=O)Nc3ccc(C(F)(F)F)cc3)ccc2O[C@@H](C)CCCCO[C@@H]1CN(C)C(=O)NC1CCCCC1, C[C@H]1CCCCO[C@H](CN(C)C)[C@@H](C)CN([C@@H](C)CO)C(=O)c2cc(NC(=O)CCCCCC(=O)Nc3ccccc3N)ccc2O1, C[C@@H]1CN([C@@H](C)CO)C(=O)Cc2cc(NC(=O)CCN3CCOCC3)ccc2O[C@H]1CN(C)Cc1ccc2c(c1)OCO2, O=C(C[C@H]1CC[C@H]2[C@@H](COC[C@H](O)CN2C(=O)C2CC2)O1)NCc1ccncc1, C[C@@H]1O[C@@H](O[C@H]2[C@H](O)[C@@H](O)[C@H](OC[C@H]3O[C@@H](OC(=O)[C@]45CCC(C)(C)C[C@@H]4C4=CC[C@H]6[C@@]7(C)CC[C@H](O[C@H]8OC[C@H](O)[C@H](O)[C@H]8O[C@H]8O[C@@H](C)[C@H](O)[C@@H](O)[C@H]8O)[C@@](C)(CO)[C@@H]7CC[C@@]6(C)[C@]4(C)CC5)[C@H](O)[C@@H](O)[C@@H]3O)O[C@@H]2CO)[C@H](O)[C@H](O)[C@H]1O, COc1ccc(S(=O)(=O)Nc2ccc3c(c2)CC(=O)N([C@H](C)CO)C[C@H](C)[C@H](CN(C)C)O3)cc1, C[C@@H]1CN([C@@H](C)CO)C(=O)c2cc(Br)cnc2O[C@H]1CN(C)C(=O)c1ccc2c(c1)OCO2
